# Measurements reported in PubChem BioAssay (NCATS).
# Several values for one entry are separate records, joined by “and”; a condition that tells them apart may be missing. Equal values may be shown once. The shares of active, inactive and inconclusive entries below differ from those in the screen. For some of these results: Potencies of inconclusive entries are doubtful fits and often do not repeat. Activity calls are given as the source filed them. Unless noted, calls come from the whole dose curve; as a rule, active = well fitted curve in the direction sought with a large enough effect; inconclusive = small, poorly fitted or top-dose-only effect, or another doubt; inactive = no such curve, though single readings can be large; an effect the other way counts as inactive or inconclusive.
# How the values were obtained:
# [1] = qHTS of pediatric cancer cell lines to identify multiple opportunities for drug repurposing: Primary screen for A673 cells (AID 1347092); details: A673 Ewing sarcoma viability, CellTiter-Glo ATP luminescence, 48 h; activity change, negative = cytotoxic: at 46 µM (top of the series); note: nearly all actives have a fitted effect of over 45% in size; note: potency is the fitted concentration of half-maximal effect
# Procedure, shortened: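 48 h compound exposure, A673, 500-1,000 cells/well, 37 degrees C/5% CO2. MIPE: 11-point, 0.78 nM-46 µM; NPC: 8-point, 0.59 nM-46 µM (final). Readout CellTiter-Glo luminescence after 15 min RT.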
# [2] = qHTS of pediatric cancer cell lines to identify multiple opportunities for drug repurposing: Primary screen for BT-37 cells (AID 1347094); note: potency is the fitted concentration of half-maximal effect
# Procedure, shortened: (§1)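 Phenotypic viability qHTS, 48 h compound exposure, CellTiter-Glo luminescence read-out; multi-concentration dosing so that potency and efficacy derive directly from the primary screen's curves.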
# [3] = qHTS of pediatric cancer cell lines to identify multiple opportunities for drug repurposing: Primary screen for SK-N-SH cells (AID 1347098); details: SK-N-SH viability, CellTiter-Glo luminescence, 48 h; activity change, negative = cytotoxic: at 57 µM (top of the series); note: nearly all actives have a fitted effect of over 65% in size; note: potency is the fitted concentration of half-maximal effect;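 for activity change, negative = cytotoxic: DMSO served as neutral control and bortezomib at 2.3 µM as positive control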
# Procedure, shortened: (§2)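 Cells (500-1,000/well) rested 5 h, then received compounds for 48 h; metabolically active cells were measured by CellTiter-Glo luminescence. Final concentrations spanned up to 46 µM (MIPE, 11-point) or 0.59 nM-46 µM (NPC, 8-point) in primary screens, 11-point in follow-ups.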
# [4] = qHTS of pediatric cancer cell lines to identify multiple opportunities for drug repurposing: Primary screen for LAN-5 cells (AID 1347100); note: potency is the fitted concentration of half-maximal effect
# Procedure, shortened: as §2
# [5] = qHTS of pediatric cancer cell lines to identify multiple opportunities for drug repurposing: Primary screen for BT-12 cells (AID 1347101); note: potency is the fitted concentration of half-maximal effect; nearly all actives have a fitted effect of over 25% in size
# Procedure, shortened: as §2
# [6] = qHTS of pediatric cancer cell lines to identify multiple opportunities for drug repurposing: Primary screen for OHS-50 cells (AID 1347103); note: nearly all actives have a fitted effect of over 40% in size; note: potency is the fitted concentration of half-maximal effect
# Procedure, shortened: as §2
# [7] = qHTS of pediatric cancer cell lines to identify multiple opportunities for drug repurposing: Primary screen for Rh41 cells (AID 1347108); note: potency is the fitted concentration of half-maximal effect; nearly all actives have a fitted effect of over 70% in size
# Procedure, shortened: as §1
# [8] = A High-Content qHTS Against Drug Library for the Identification of Small Molecules that Inhibit DYT1 Early Onset Primary Dystonia-Associated Cell Pathology (AID 1645839; calls by dose curve; note: potency is the fitted concentration of half-maximal effect)
# Procedure, shortened: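 In this high-content image screen, delE TorsinA mislocalization in inducible Flp-In 293 cells is scored as %pathology, with cell count serving as the counterscreen. Compound exposure lasts 48 h under tetracycline induction in reduced-serum medium.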
# [9] = target: Cytochrome P450 2C9 (Homo sapiens) (UniProt P11712); assay: Cytochrome P450 family 2 subfamily C member 9 (CYP2C9) small molecule antagonists: luciferase biochemical (cell-free) qHTS assay (AID 1645842; active = well fitted curve in the direction sought with a large enough effect in the repeat runs; inconclusive = weak or mixed curves; inactive = no such curve, though single readings can be large; an effect the other way counts as inactive or inconclusive; note: nearly all actives have a fitted effect of over 55% in size; note: potency is the fitted concentration of half-maximal effect)
# Chain of UniProt P11712 (P11712 whole entry, looked up): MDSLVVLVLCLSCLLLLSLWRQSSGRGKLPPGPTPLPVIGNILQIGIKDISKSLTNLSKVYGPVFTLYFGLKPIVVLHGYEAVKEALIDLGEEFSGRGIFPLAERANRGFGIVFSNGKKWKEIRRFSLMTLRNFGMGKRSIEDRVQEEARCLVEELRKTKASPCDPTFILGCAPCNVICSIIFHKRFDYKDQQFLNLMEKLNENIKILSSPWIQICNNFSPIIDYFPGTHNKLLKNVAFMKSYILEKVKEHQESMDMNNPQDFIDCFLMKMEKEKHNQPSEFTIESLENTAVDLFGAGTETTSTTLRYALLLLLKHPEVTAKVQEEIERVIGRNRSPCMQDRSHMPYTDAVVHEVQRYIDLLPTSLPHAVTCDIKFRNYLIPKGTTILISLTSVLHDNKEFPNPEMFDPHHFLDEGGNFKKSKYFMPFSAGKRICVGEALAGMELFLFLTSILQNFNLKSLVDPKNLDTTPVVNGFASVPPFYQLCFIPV
# Procedure, shortened: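 Luminescence, after 20 min with luciferin detection reagent, reflected CYP2C9 turnover during a 1 h NADPH-driven reaction at 37C. Enzyme-substrate mix contained 0.4% bovine serum albumin and was preincubated with compound 10 min at room temperature.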
# CP335 = assay: qHTS profiling for inhibitors of Plasmodium falciparum proliferation (AID 504749); note: nearly all actives have a fitted effect of over 60% in size; note: potency is the fitted concentration of half-maximal effect; details: P. falciparum in erythrocytes, SYBR Green DNA, 72 h; series mostly up to 28.7 µM
# Procedure, shortened: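 Three-day growth assay of blood-stage parasites in erythrocytes (0.3% parasitemia, 2.5% hematocrit) at 37 C, 5% CO2, quantified by SYBR Green DNA staining after overnight detergent lysis.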
# WaGa = assay: qHTS assay to identify novel small-molecules to repurpose for Merkel cell carcinoma treatment (AID 1296009); details: MCC and control cell lines, CellTiter-Glo viability, 72 h; series mostly up to 46 µM; note: nearly all actives have a fitted effect of over 60% in size; note: potency is the fitted concentration of half-maximal effect
# Procedure, shortened: (§3)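 After compound transfer in DMSO, plates were kept 72 hr at 37 degree celsius. Luminescent ATP signal from CellTiter-Glo served as viability measure, normalized against DMSO and no-cell controls.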
# Tov112D = assay: Primary qHTS to identify gynecologic anti-cancer compounds using libraries of approved drugs and bioactive compounds (AID 1345084); details: Gynecologic cancer cell panel viability, ATPlite luminescence, 48 h; activity change, negative = cytotoxicity: at 57.5 µM (top of the series); note: potency is the fitted concentration of half-maximal effect; nearly all actives have a fitted effect of over 55% in size
# Procedure, shortened: (§4)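 ATP-based viability (ATPlite), 1,000 cells/well, 16 h pre-incubation, 48 h compound at 37 C, 5% CO2, 15 min RT before read.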
# [10] = Drug repurposing screens with cells derived from glioblastoma tumor samples (AID 1345199); details: GBM patient neurospheres viability, ATP luminescence, 48 h; Potency: tumour line A unless noted; series mostly up to 46 µM; note: nearly all actives have a fitted effect of over 40% in size; note: potency is the fitted concentration of half-maximal effect
# Procedure, shortened: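 Four patient lines of CD133+ GBM neurospheres were screened at several concentrations; hits were retested in those lines plus three slower-growing GBM lines, using 48-hour treatment and ATP-based viability.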
# [11] = qHTS of pediatric cancer cell lines to identify multiple opportunities for drug repurposing: Primary screen for SK-N-MC cells (AID 1347093); details: SK-N-MC viability, CellTiter-Glo luminescence, 48 h; activity change, negative = cytotoxic: at 46 µM (top of the series)
# Procedure, shortened: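 Metabolically active cells were quantified by ATP-dependent luminescence (CellTiter-Glo, 15 min at room temperature) following 48 h treatment. Cells had been plated at 500-1,000 per well and settled for 5 h beforehand.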
# [12] = Primary qHTS for small molecule stabilizers of the endoplasmic reticulum resident proteome: Secreted ER Calcium Modulated Protein (SERCaMP) assay (AID 1508630); details: SH-SY5Y GLuc-SERCaMP (Gaussia luciferase released on ER calcium loss) secretion, thapsigargin, luminescence; series mostly up to 38.4 µM; note: potency is the fitted concentration of half-maximal effect
# Procedure, shortened: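 GLuc-SERCaMP-expressing SH-SY5Y cells, pretreated 16 h with compound, are challenged with thapsigargin to empty ER calcium stores; after 4 h, coelenterazine is added directly to the medium and luminescence is imaged.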
# MKL-2 = assay: qHTS assay to identify novel small-molecules to repurpose for Merkel cell carcinoma treatment (AID 1296009); details: MCC and control cell lines, CellTiter-Glo viability, 72 h; activity change, negative = cytotoxicity: at 46 µM (top of the series); note: nearly all actives have a fitted effect of over 60% in size; note: potency is the fitted concentration of half-maximal effect
# Procedure, shortened: as §3
# HeLa = assay: Primary qHTS to identify gynecologic anti-cancer compounds using libraries of approved drugs and bioactive compounds (AID 1345084); details: Gynecologic cancer cell panel viability, ATPlite luminescence, 48 h; series mostly up to 57.5 µM; note: potency is the fitted concentration of half-maximal effect; nearly all actives have a fitted effect of over 55% in size
# Procedure, shortened: as §4
# Es-2 = assay: as above; details: Gynecologic cancer cell panel viability, ATPlite luminescence, 48 h; series mostly up to 57.5 µM
# Procedure, shortened: as §4
# [13] = target: Phospholipid hydroperoxide glutathione peroxidase GPX4 (Homo sapiens) (UniProt P36969); assay: Primary qHTS Assay for Inhibitors of Recombinant Selenoprotein Glutathione Peroxidase 4 (GPX4) (AID 1845192); note: nearly all actives have a fitted effect of over 65% in size; note: potency is the fitted concentration of half-maximal effect
# Chain of UniProt P36969 (P36969 whole entry, looked up): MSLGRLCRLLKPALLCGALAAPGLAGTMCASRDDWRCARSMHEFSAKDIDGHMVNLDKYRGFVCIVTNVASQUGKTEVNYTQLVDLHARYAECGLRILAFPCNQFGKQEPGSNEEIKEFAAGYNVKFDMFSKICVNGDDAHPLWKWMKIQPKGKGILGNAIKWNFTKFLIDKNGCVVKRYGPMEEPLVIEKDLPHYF
# Procedure, shortened: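 NADPH consumption, followed by fluorescence at 340/450 nm between 0 and 15 min, reports GPX4 activity via coupled glutathione reductase (100 nM). Enzyme 200 nM was pre-exposed to compound 30 min; 0.5 mM cumene hydroperoxide and 1 mM GSH served as substrates.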
# [14] = target: Glutathione peroxidase 1 (Homo sapiens) (UniProt P07203); assay: Primary qHTS Assay for Inhibitors of Recombinant Selenoprotein Glutathione Peroxidase 1 (GPX1) (AID 1845191); details: activity, negative = inhibition: at 48.8 µM (top of the series); note: potency is the fitted concentration of half-maximal effect; nearly all actives have a fitted effect of over 65% in size
# Chain of UniProt P07203 (P07203 whole entry, looked up): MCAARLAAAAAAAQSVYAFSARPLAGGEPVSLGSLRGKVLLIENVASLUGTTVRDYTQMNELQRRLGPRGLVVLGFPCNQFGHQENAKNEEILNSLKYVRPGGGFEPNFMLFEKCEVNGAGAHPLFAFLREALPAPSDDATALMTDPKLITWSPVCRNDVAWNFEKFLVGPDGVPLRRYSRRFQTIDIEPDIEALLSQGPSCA
# Procedure, shortened: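 10 nM GPX1 + cpd, 30 min RT; start w/ 1 mM GSH, 0.5 mM cumene hydroperoxide, 0.5 mM NADPH, 100 nM GR, 0.01% BSA; buffer 50 mM Tris-HCl pH 7.5, 2 mM EDTA, 150 mM NaCl; Fl 340/450, 0 & 15 min.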
# Tags give direction and shape of the fitted curve.
smiles,measurement,setting,value
COC1=CC(=O)C[C@@H](C)[C@]12Oc1c(Cl)c(OC)cc(OC)c1C2=O,Potency,[1],"inconclusive: 33.5 µM [cytotoxic, single point]"
same,Potency,[2],"inconclusive: 27.6 µM [cytotoxic, single point]"
same,Potency,[3],"inconclusive: 19.4 µM [cytotoxic, partial curve, poor fit]"
same,Potency,[4],"inconclusive: 26.6 µM [cytotoxic, single point]"
same,Potency,[5],"inconclusive: 38.9 µM [cytotoxic, single point]"
same,Potency,[6],"inconclusive: 38.9 µM [cytotoxic, partial curve, poor fit]"
same,Potency,[7],"inconclusive: 29.9 µM [cytotoxic, single point]"
same,Potency,[8],inactive
same,Potency,[9],inactive
same,Potency,CP335,inactive
same,Potency,WaGa,"inconclusive: 21.1 µM [inhibitor, single point]"
same,Potency,Tov112D,"inconclusive: 31.6 µM [cytotoxic, single point]"
same,Potency,[10],"inconclusive: 35.5 µM [inhibitor, partial curve]"
CC(C)(C)c1nnc(NS(=O)(=O)c2ccccc2)s1,Potency,[1],inactive
same,Potency,[11],inactive
same,Potency,[2],inactive
same,Potency,[3],inactive
same,Potency,[8],"inconclusive: 11.2 µM [inhibitor, single point]"
same,Potency,[9],"inconclusive: 21.9 µM [inhibitor, single point]"
same,Potency,[10],inactive
CC(C)(c1ccc(O)cc1)c1ccc(O)cc1,Potency,[5],"inconclusive: 25.6 µM [cytotoxic, partial curve, poor fit]"
same,Potency,[6],"inconclusive: 2.03 µM [cytotoxic, full curve, poor fit]"
same,Potency,[7],"inconclusive: 31.3 µM [cytotoxic, partial curve, poor fit]"
same,Potency,[12],"inconclusive: 56.2 µM [inhibitor, single point]"
same,Potency,[8],active: 31.6 µM
same,Potency,WaGa,"inconclusive: 49.5 µM [inhibitor, single point]"
CCCCOc1ccc(OCCCN2CCOCC2)cc1,Potency,[1],inactive
same,Potency,[4],"inconclusive: 8.41 µM [cytotoxic, partial curve, poor fit]"
same,Potency,[5],"inconclusive: 15.5 µM [cytotoxic, partial curve]"
same,Potency,[8],"inconclusive: 10 µM [inhibitor, partial curve, poor fit]"
same,Potency,CP335,"inconclusive: 0.809 µM [inhibitor, partial curve, poor fit]"
same,Potency,WaGa,inactive
O=C1OC(CN2CCOCC2)CN1/N=C/c1ccc([N+](=O)[O-])o1 (configuration not stated),Potency,[3],inactive
same,Potency,[6],inactive
same,Potency,[8],inactive
same,Potency,MKL-2,"inconclusive: 8.41 µM [inhibitor, partial curve, poor fit]"
same,Potency,[10],"inconclusive: 17.8 µM [inhibitor, partial curve, poor fit]"
CN(C)C(=O)COC(=O)c1cc(-c2ccc(C3CCNCC3)cc2)c2ccc(-c3ccc(C(F)(F)F)cc3)cc2c1,Potency,[9],"inconclusive: 33.8 µM [inhibitor, single point]"
same,Potency,HeLa,"inconclusive: 39.8 µM [cytotoxic, single point]"
same,Potency,Tov112D,"inconclusive: 35.5 µM [cytotoxic, partial curve, poor fit]"
O=C(NCCCNC(=O)c1ccc[nH]c1=O)c1cc(-c2ccccc2)on1,Potency,Es-2,"inconclusive: 15.8 µM [cytotoxic, partial curve, poor fit]"
same,Potency,HeLa,"inconclusive: 15.8 µM [cytotoxic, single point]"
O=C(Nc1ccccc1C(=O)Nc1ccc(CCO)cc1)c1ccc([N+](=O)[O-])cc1,Potency,[13],inactive
COc1ccc2cc3c(NC(=O)c4ccco4)nn(C)c3nc2c1,Potency,[13],"inconclusive: 28.6 µM [inhibitor, partial curve, poor fit]"
CC(C)=CCCC1(C)Oc2cc3c(c4c2C2C(O4)C(C)(O)CCC21)CN(C(CCC(=O)O)C(=O)O)C3=O (configuration not stated),Potency,[13],inactive
C=C1CC[C@H](O)CC1=C/C=C1\CCC[C@]2(C)[C@@H]([C@H](C)/C=C/[C@H](C)C(C)C)CC[C@@H]12,Potency,[9],active: 16.9 µM
same,Potency,[10],active: 10 µM
CC(C)c1c2cc(-c3ccnc(NC4CCC(NC5CCOCC5)CC4)n3)ccc2nn1C (configuration not stated),Potency,[9],"inconclusive: 15.1 µM [inhibitor, partial curve]"
same,Potency,[14],"inconclusive: 32.1 µM [inhibitor, single point] and inconclusive: 2.05 µM [inhibitor, partial curve]"
same,Potency,[13],"inconclusive: 3.6 µM [inhibitor, full curve] and active: 9.04 µM"
same,Potency,Es-2,active: 0.316 µM
same,Potency,Tov112D,active: 0.398 µM
